Screen size: about 16,000 compounds; about 120 (0.75%) were called active. Roughly 4% stayed inconclusive and do not appear here. Calls follow the shape of the dose curve; as a rule, active = well fitted inhibition curve with a large enough effect; inconclusive = small, poorly fitted or top-dose-only effect; inactive = no such curve, though single readings can be large or run the other way. This is one part of the list. Where a SMILES comes first, the peptide text is derived from it. Bridges are numbered along the chain shown (N, C = ends). [ ]: non-standard residue; d: D form. The star is where a group is joined. ξ: configuration not given here. d(aThr) = C[C@@H](O)[C@@H](N)C(=O)O; ξThr(3R) = C[C@@H](O)C(N)C(=O)O; X8 = CC[C@@H](C)CCCCC(=O)*; dDab = NCC[C@@H](N)C(=O)O
These compounds were tested against Rap guanine nucleotide exchange factor 3 (Homo sapiens) (UniProt O95398) (assay: Validation qHTS for antagonist of cAMP-regulated guanine nucleotide exchange factor 3 (EPAC1)). Conditions: EPAC1 Rap1B-BODIPY-GDP exchange, fluorescence; series mostly up to 150 µM; activity change, negative = inhibition: at the top concentration.
Method in brief: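 EPAC1 (100 nM) mixed with 250 nM RAP1B-BODIPY-GDP and 50 uM GDP; compounds in concentration series, 5 min at room temperature. Fluorescence (ex 480/em 540 nm) read every 5 min for 30 min; normalized to ATA control and DMSO.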
Also: nearly all actives have a fitted effect of over 75% in size.
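For activity change, negative = inhibition in this document: plate controls were DMSO for no effect and ATA control for full effect.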
Potency is read from the fitted curve at half-maximal effect.

UniProt O95398, sequence (O95398 whole entry, looked up): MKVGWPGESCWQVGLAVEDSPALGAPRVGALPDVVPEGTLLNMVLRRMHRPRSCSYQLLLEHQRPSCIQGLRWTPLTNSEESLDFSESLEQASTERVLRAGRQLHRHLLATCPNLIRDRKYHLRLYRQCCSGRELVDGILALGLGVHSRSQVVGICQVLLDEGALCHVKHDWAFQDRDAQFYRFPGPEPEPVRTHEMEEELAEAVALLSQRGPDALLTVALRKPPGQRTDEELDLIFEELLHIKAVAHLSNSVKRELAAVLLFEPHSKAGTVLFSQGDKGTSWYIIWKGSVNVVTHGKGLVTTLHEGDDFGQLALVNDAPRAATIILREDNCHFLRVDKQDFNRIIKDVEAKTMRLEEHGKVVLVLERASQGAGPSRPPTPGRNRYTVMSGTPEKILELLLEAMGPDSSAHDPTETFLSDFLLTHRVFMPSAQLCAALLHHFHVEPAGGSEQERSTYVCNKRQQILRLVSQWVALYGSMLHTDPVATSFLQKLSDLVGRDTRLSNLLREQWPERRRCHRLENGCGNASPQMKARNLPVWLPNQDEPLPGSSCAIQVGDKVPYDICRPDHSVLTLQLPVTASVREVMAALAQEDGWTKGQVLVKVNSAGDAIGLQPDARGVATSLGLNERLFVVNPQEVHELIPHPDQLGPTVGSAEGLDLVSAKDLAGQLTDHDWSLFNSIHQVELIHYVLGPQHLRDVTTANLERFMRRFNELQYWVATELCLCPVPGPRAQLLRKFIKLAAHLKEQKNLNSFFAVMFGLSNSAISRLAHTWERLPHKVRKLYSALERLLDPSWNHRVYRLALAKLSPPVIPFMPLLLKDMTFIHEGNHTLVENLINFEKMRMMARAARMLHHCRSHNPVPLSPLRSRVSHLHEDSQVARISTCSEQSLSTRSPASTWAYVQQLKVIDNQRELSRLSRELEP

| Compound | activity change, negative = inhibition | Potency |
| --- | --- | --- |
| O=C(c1ccncc1)N1CCC2(CC1)CCN(c1ncccn1)CC2 | inactive: 13.6% | – |
| Cn1c(=O)c2c(ncn2CCOC(=O)C(C)(C)Oc2ccc(Cl)cc2)n(C)c1=O | inactive: 7.66% | – |
| CC1COC2=C1C(=O)C(=O)c1c2ccc2c1CCCC2(C)C (stereo not drawn) | inactive: -18.5% | – |
| CC(=O)N1CCC[C@@]2(CCN(Cc3cc(C(F)(F)F)cc(C(F)(F)F)c3)C2)C1 | inactive: -7.76% | – |
| CC(=O)/C(=C\c1ccccc1)CC(=O)O | inactive: 8.5% | – |
| CC[C@@H](C(=O)[C@@H](C)[C@@H](O)[C@H](C)[C@@H]1O[C@@H]([C@@H](CC)C(=O)O)CC[C@@H]1C)[C@H]1O[C@]2(C=C[C@@H](O)[C@]3(CC[C@@](C)([C@H]4CC[C@](O)(CC)[C@H](C)O4)O3)O2)[C@H](C)C[C@@H]1C | inactive: -138% | – |
| Cn1nnc2c(C(N)=O)ncn2c1=O | inactive: 19.7% | – |
| Cc1cccc(CN2C[C@H](Sc3ccccn3)C[C@H]2C(=O)Nc2ccc3sc(C)nc3c2)c1 | inactive: -2.16% | – |
| CCOC(=O)C(C)Oc1cccc2c(=O)n(CC(=O)Nc3ccc4c(c3)OCCO4)ccc12 (stereo not drawn) | inactive: 5.48% [at 75.8 µM] | – |
| O=P(O)(O)C(O)c1ccc2ccccc2c1 (stereo not drawn) | inactive: 13.9% | – |
| CC(C)(C)CC(C)(C)c1ccc(OCCOCC[N+](C)(C)Cc2ccccc2)cc1 | inactive: 0.655% | – |
| CC(C)C[C@@H](CSc1ccccc1)N1CCN(C)CCC1=O | inactive: -11.2% | – |
| Cn1c(SCc2ccccc2)nnc1C1CCCN(Cc2cccc3ncccc23)C1 (stereo not drawn) | inactive: 13.1% | – |
| CC(C)CCCCCCc1ccc(O)cc1 | inactive: -28.9% | – |
| CC1(C)S[C@@H]2[C@H](NC(=O)COc3ccccc3)C(=O)N2C1C(=O)OCc1ccccc1 (stereo partly drawn) | inactive: -10.6% | – |
| O=c1c(-c2cc(F)cc(F)c2)nc2cnc(N3CCOCC3)nc2n1C1CC1 | inactive: 21.5% | – |
| Nc1ccccc1C(=O)C[C@H](N)C(=O)O | inactive: 6.77% | – |
| CCCCOc1ccc(C(=O)CCN2CCCCC2)cc1 | inactive | – |
| NC(=O)C[C@H](NC(=O)Cc1ccc(O)cc1O)C(=O)O | inactive | – |
| O=C(O)COc1ccc(C(=O)c2cccs2)c(Cl)c1Cl | inactive | – |
| COc1cccc(O)c1O | inactive: 24.5% | – |
| COc1ccc(CNC(=O)[C@@H]2CC=C[C@@H]3CCN(Cc4ccc(OC)c(OC)c4)C(=O)[C@@H]32)cc1 | inactive: -19.3% | – |
| c1cncc(CNc2ccnc(-c3ccc4c(c3)OCO4)n2)c1 | inactive: 3.38% | – |
| O=c1c(-c2ccc(Cl)cc2)nc2cnc(N3CCOCC3)nc2n1-c1ccccc1 | inactive: 5.69% | – |

| Compound | activity change, negative = inhibition | Potency |
| --- | --- | --- |
| COc1ccc(CCn2nnnc2C2(c3ccc(C)cc3)CC2)cc1 | inactive: 13.6% [at 75.8 µM] | – |
| O=CCCCC=O | inactive: 15.9% | – |
| CC(=O)N1CCC[C@H]1C(=O)NCC1Cc2cc(-c3cccc(OC(F)(F)F)c3)ccc2O1 (stereo partly drawn) | inactive: -8.05% | – |
| Nc1nc(N)c2nc(-c3ccccc3)c(N)nc2n1 | inactive | – |
| CC[C@@H](C)CCCCC(=O)N[C@H](CCN)C(=O)N[C@@H](C(=O)N[C@H](CCN)C(=O)N[C@@H]1CCNC(=O)C([C@@H](C)O)NC(=O)[C@@H](CCN)NC(=O)[C@@H](CCN)NC(=O)[C@@H](CC(C)C)NC(=O)[C@@H](Cc2ccccc2)NC(=O)[C@@H](CCN)NC1=O)[C@@H](C)O (stereo partly drawn) (X8-[dDab][d(aThr)][dDab][dDab][dDab][dF][dL][dDab][dDab][ξThr(3R)]; lactam 4-C) | inactive: 11.2% | – |
| c1ccc(Nc2nc(-c3ccc4c(c3)OCO4)nc3ccccc23)cc1 | inactive: -12.1% | – |
| CC(C)=CCCC1(C)C=Cc2c(O)c3c(c(CC=C(C)C)c2O1)OC12C(=CCCC1C(C)(C)O[C@@]2(C/C=C(\C)C(=O)O)C(=O)O)C3=O (stereo partly drawn) | – | active: 89.1 µM |
| COc1cccc(CNC(=O)c2c(OC)cc(=O)n3c2CCN(C(=O)c2cc(C)ccc2C)CC3)c1 | inactive: 13.2% | – |
| COc1cccc(Cn2c(=O)c(-c3cc(F)cc(F)c3)nc3cnc(N4CCNCC4)nc32)c1 | inactive: -14.8% | – |
| Cc1ccccc1-c1cncnc1N1CCNCC1 | inactive: 23.1% | – |
| Cc1ccc(C(=O)Cn2c3c(sc2=N)CCCC3)cc1 | inactive: -11% | – |
| CC(C)(C)NC(=O)[C@H]1CC[C@H]2[C@@H]3CC[C@H]4NC(=O)C=C[C@]4(C)[C@H]3CC[C@]12C | inactive: 15% [at 75.8 µM] | – |
| N[C@]1(C(=O)O)CCc2cc(P(=O)(O)O)ccc21 | inactive: 8.6% | – |
| O=Cc1cccc(C=O)c1 | inactive: 6.44% | – |
| CC(C)c1c(C(=O)NCc2ccncc2)cnn1-c1nccc(-c2cccs2)n1 | inactive: -15.7% | – |
| C=CC[N+]1([C@H]2C[C@H]3[C@@H]4CC[C@H]5C[C@H](O)[C@@H](N6CCOCC6)C[C@]5(C)[C@H]4CC[C@]3(C)[C@H]2OC(C)=O)CCCC1 | inactive: 9.47% | – |
| C=CC1=C(C)/C(=C/c2[nH]c(Cc3[nH]c(/C=C4\NC(=O)C(C)=C4C=C)c(C)c3CCC(=O)O)c(CCC(=O)O)c2C)NC1=O | inactive: -0.0385% | – |
| O=C(NCCc1nnc2n1CCN(Cc1ccc(F)cc1)CC2)c1ccco1 | inactive: 12.8% | – |
| COc1ccc(CN2CCC3(CCC(CNC(=O)c4ccco4)O3)CC2)c(OC)c1C (stereo not drawn) | inactive: -4.52% | – |
| COc1cccc(-c2cncnc2NCCc2c[nH]c3ccc(OC)cc23)c1 | inactive: 11.3% | – |
| CCC[C@@H]1C[C@@H](C(=O)N[C@@H]([C@H]2O[C@H](SC)[C@H](O)[C@@H](O)[C@H]2O)[C@@H](C)O)N(C)C1 | inactive: 404% | – |
| COc1ccc(C(=O)N2CCC3(CCCN(c4ccccn4)C3)CC2)cc1 | inactive: 4.39% | – |
| COc1ccc(CN2CCOc3ccc(CN4CCC(O)(c5cccnc5)CC4)cc3C2)c(C)c1C | inactive: 3.11% | – |
| COc1ccccc1CCNc1ncnc2sc(C(=O)N3CCCCC3)c(C)c12 | inactive: 4.53% | – |

| Compound | activity change, negative = inhibition | Potency |
| --- | --- | --- |
| C=C1C(N)CC2CC1C2(C)C (stereo not drawn) | inactive: 17% | – |
| CCCCCCCC(=O)O[C@H](CC(=O)O)C[N+](C)(C)C | inactive: -14.8% | – |
| CN1CCCN=C1/C=C/c1cccs1 | inactive: 22.2% | – |
| CC(=O)N1CCN(c2nc3cc(C)ccc3cc2CN(C(=O)c2cccc3ccccc23)C2CC2)CC1 | inactive: 5.19% | – |
| C[C@@H](CSc1ccc(Br)cc1)CN1CC[C@H](NC(=O)OCc2ccccc2)CCC1=O | inactive: 5.37% | – |
| COC(=O)c1cc(CNC(=O)c2cccc3ccccc23)cc(NC(=O)c2ccccc2OC)c1 | inactive: -11% | – |
| CO[C@H]1C[C@@H]2CC[C@@H](C)[C@@](O)(O2)C(=O)C(=O)N2CCCC[C@H]2C(=O)O[C@H]([C@H](C)C[C@@H]2CC[C@@H](OC(=O)C(C)(CO)CO)[C@H](OC)C2)CC(=O)[C@H](C)/C=C(\C)[C@@H](O)[C@@H](OC)C(=O)[C@H](C)C[C@H](C)/C=C/C=C/C=C/1C | inactive: 12.6% | – |
| O=C(C[n+]1cccc2cccc(O)c21)c1ccc(Br)cc1 | inactive: 23.7% | – |
| O=C(O)CCCCCCCCc1cn(CC2CCCCC2)nn1 | inactive: -6.5% | – |
| C[C@]12CCC(=O)C=C1CCC1C2C(O)C[C@]2(C)C1CC[C@]2(O)C(=O)COC(=O)CCC(=O)O (stereo partly drawn) | inactive: 2.22% | – |
| OC[C@H]1NC[C@@H](O)[C@@H](O)[C@H]1O | inactive: 13.4% | – |
| O=C1CCN(CCc2ccccc2)CCN1[C@H](CSc1ccccc1)Cc1ccccc1 | inactive: -28.5% | – |
| Nc1nc2c(nc(Br)n2C2OC(CO)C(O)C2O)c(=O)[nH]1 (stereo not drawn) | inactive: 1.08% | – |
| O=C(Oc1ccccc1)N1CCC2(CC1)CCN(c1ccccc1)CC2 | inactive: -11.9% | – |
| COCC(=O)N1CCC2(CCCN(Cc3nccs3)C2)CC1 | inactive: 0.165% | – |
| Cc1ccc2nc(SCC(=O)NCC3Cc4cc(-c5ncccc5C)ccc4O3)[nH]c2c1 (stereo not drawn) | inactive: 1.43% | – |
| CC/C=C\C/C=C\C/C=C\C/C=C\C/C=C\C/C=C\CCC(=O)O | inactive | – |
| CSCCC(N)C(=O)NC(CC(C)C)C(=O)NC(Cc1ccccc1)C(=O)O (stereo not drawn) | inactive: 12.7% | – |
| COc1ccc(-c2cc3ccccc3c(=O)o2)cc1 | inactive: 11.5% | – |
| Cc1cc(CC(=O)O)c(C)n1-c1ccc(Cl)cc1 | inactive: 14.5% | – |
| O=C(c1cc(C(F)(F)F)cc(C(F)(F)F)c1)N1CCC2(CC1)CCN(c1ncccn1)CC2 | inactive: -14.1% | – |
| CCn1nc(C)cc1C(=O)NCC1CCC2(CCN(Cc3ccccc3F)CC2)O1 (stereo not drawn) | inactive: 8.94% | – |
| CC(=O)/C=C\C1[C@]2(C)CCCC(C)(C)C2CC[C@@]1(C)O (stereo partly drawn) | inactive: 2.93% | – |
| O=C(NCc1cccnc1)[C@@H]1CC=C[C@@H]2CCN(Cc3ccccc3)C(=O)[C@@H]21 | inactive: 4.82% | – |

| Compound | activity change, negative = inhibition | Potency |
| --- | --- | --- |
| CN(CCO)C(=O)c1cn(C2CCCN(Cc3cc4ccccc4s3)C2)nn1 (stereo not drawn) | inactive: 11% | – |
| COc1ccc(-c2cc(=O)c3c(OC)c(OC)c(OC)c(OC)c3o2)cc1OC | inactive: -20.6% | – |
| CC(=O)O[C@]1(C(C)=O)CC[C@H]2[C@@H]3CCC4=CC(=O)CC[C@]4(C)[C@@]3(F)[C@@H](O)C[C@@]21C | inactive: 15.5% | – |
| Cc1cccc(CNc2cc(-c3ccccc3C)ncn2)c1 | inactive: 4.7% | – |
| CC1(C)O[C@@H]2C[C@@H]3[C@H]4C[C@@H](F)C5=CC(=O)C=C[C@]5(C)[C@@]4(F)[C@@H](O)C[C@]3(C)[C@]2(C(=O)CO)O1 | inactive: 25.2% | – |
| O=C(c1csnn1)N1CCC2(CC1)CCN(c1ncccn1)CC2 | inactive: 19.5% | – |
| Cc1nc2cnc(OCc3ccccc3)nc2n(CCC#N)c1=O | inactive: 17% | – |
| CC(N)=NCc1cccc(CN)c1 | inactive | – |
| Cc1noc(C)c1C(=O)N1CCC[C@@]2(CCN(C(=O)Nc3ccccc3)C2)C1 | inactive: 9.69% | – |
| COc1ccc(CNc2nc(-c3c(C)noc3C)nc3ccccc23)c(OC)c1 | inactive: -8.14% | – |
| COCC(=O)N1CCC2(CCCN(Cc3ccccc3OC)C2)CC1 | inactive: 9.54% | – |
| COc1cccc(CN2CCOc3ccc(C(O)c4cccnc4)cc3C2)c1 (stereo not drawn) | inactive: 12.4% | – |
| O=c1cc[nH]c(=O)[nH]1 | inactive: 8.88% | – |
| CCNc1ncc2nc(-c3cn(C)c4ccccc34)c(=O)n(C)c2n1 | inactive: 27.1% | – |
| Cc1ccc2c(c1)CN(C(=O)CC(c1ccccc1)c1ccco1)CC(C)O2 (stereo not drawn) | inactive: 10.8% | – |
| O=C(Nc1ccc([N+](=O)[O-])cc1Cl)c1cc(Cl)ccc1O | inactive | – |
| CC(C)NC(=O)N1CC2(CCN(C(=O)c3ccco3)CC2)C1 | inactive: 6.45% | – |
| CC(=O)c1ccccc1-c1ccc2c(c1)CC(CNC(=O)c1ccnc(Cl)c1)O2 (stereo not drawn) | inactive: -1.03% | – |
| CC(=O)Nc1cc(C(=O)N2CCN(c3ccccc3)CC2C)cc2ncn(CCc3ccccn3)c12 (stereo not drawn) | inactive: 10.2% | – |
| O=Cc1ccc(N2CCOCC2)cc1 | inactive: 14.5% | – |
| COc1ccccc1CNc1ncnc2sc(C(=O)N(C)C(C)C)c(C)c12 | inactive: 7.6% | – |

Source: PubChem BioAssay AID1645882 (National Center for Advancing Translational Sciences (NCATS), 2021)
